# Experimental data reported in the supplement of paper PMC8728848.
# Some of the results follow.
# How the values were obtained:
# Assay in all cases: glycan array binding signal (z-score within array); higher = stronger binding
# Conditions in all cases: glycan notation: IUPAC condensed, linker removed
# Gal3S(b1-4)Glc = biological target: Gal3S(b1-4)Glc
# Outline: (§1)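 Glycan array data came from 3228 arrays in the Consortium for Functional Glycomics database, and only arrays with an available protein sequence were kept. Glycan names were put into IUPAC-condensed notation, and columns mapping to the same glycan were averaged. The binding signal is a within-array Z-score, averaged across arrays of one protein sequence run at different concentrations or buffers and across linkers. A negative Z-score can be read as non-binding.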
# Gal3S(b1-4)Glc6S = biological target: Gal3S(b1-4)Glc6S
# Outline: as §1
# Gal3S(b1-4)GlcNAc = biological target: Gal3S(b1-4)GlcNAc
# Outline: as §1
# [1] = biological target: Gal3S(b1-4)[Fuc(a1-3)]Glc6S
# Outline: as §1
# [2] = biological target: Gal3S(b1-4)[Fuc(a1-3)]GlcNAc
# Outline: as §1
# [3] = biological target: Gal3S(b1-4)[Fuc(a1-3)]GlcNAc6S
# Outline: as §1
# Gal3S4S(b1-4)GlcNAc = biological target: Gal3S4S(b1-4)GlcNAc
# Outline: as §1
# Gal3S6S(b1-4)GlcNAc = biological target: Gal3S6S(b1-4)GlcNAc
# Outline: as §1
# Gal3S6S(b1-4)GlcNAc6S = biological target: Gal3S6S(b1-4)GlcNAc6S
# Outline: as §1
# Gal4S(b1-4)GlcNAc = biological target: Gal4S(b1-4)GlcNAc
# Outline: as §1
# Gal4S6S(b1-4)GlcNAc = biological target: Gal4S6S(b1-4)GlcNAc
# Outline: as §1
# Gal6P(b1-4)GlcNAc = biological target: Gal6P(b1-4)GlcNAc
# Outline: as §1
# Gal6S(b1-3)GlcNAc = biological target: Gal6S(b1-3)GlcNAc
# Outline: as §1
# Gal6S(b1-3)GlcNAc6S = biological target: Gal6S(b1-3)GlcNAc6S
# Outline: as §1
# Gal6S(b1-4)Glc = biological target: Gal6S(b1-4)Glc
# Outline: as §1
# Gal6S(b1-4)Glc6S = biological target: Gal6S(b1-4)Glc6S
# Outline: as §1
# Gal6S(b1-4)GlcNAc = biological target: Gal6S(b1-4)GlcNAc
# Outline: as §1
# Gal6S(b1-4)GlcNAc6S = biological target: Gal6S(b1-4)GlcNAc6S
# Outline: as §1
# GalNAc(a1-3)Gal = biological target: GalNAc(a1-3)Gal
# Outline: as §1
# GalNAc(a1-3)GalNAc = biological target: GalNAc(a1-3)GalNAc
# Outline: as §1
# [4] = biological target: GalNAc(a1-3)GalNAc(b1-3)Gal(a1-4)Gal(b1-4)Glc
# Outline: as §1
# [5] = biological target: GalNAc(a1-3)GalNAc(b1-3)Gal(a1-4)Gal(b1-4)GlcNAc
# Outline: as §1
# GalNAc(b1-3)Gal = biological target: GalNAc(b1-3)Gal
# Outline: as §1
# [6] = biological target: GalNAc(b1-3)Gal(a1-4)Gal(b1-4)GlcNAc
# Outline: as §1
# [7] = biological target: GalNAc(b1-3)Gal(a1-4)Gal(b1-4)GlcNAc(b1-3)Gal(b1-4)Glc
# Outline: as §1
# [8] = biological target: GalNAc(b1-3)Gal(a1-6)Gal(b1-4)Glc
# Outline: as §1
# GalNAc(b1-3)GalNAc = biological target: GalNAc(b1-3)GalNAc
# Outline: as §1
# GalNAc(b1-3)GlcNAc = biological target: GalNAc(b1-3)GlcNAc
# Outline: as §1
# GalNAc(b1-4)Gal(b1-4)Glc = biological target: GalNAc(b1-4)Gal(b1-4)Glc
# Outline: as §1
# GalNAc(b1-4)GlcNAc = biological target: GalNAc(b1-4)GlcNAc
# Outline: as §1
binder,measurement,setting,value
SialidaseA (Arthrobacter ureafaciens) (protein) MRSNSTSAPSLVRRAATGVLTCAVSIGLLAGLGLPAQAAPTPPNSPTLPPGSFSETNLAADRTAANFFYRIPALTYLGNDVVLAAWDGRPGSAADAPNPNSIVQRRSTDGGKTWGPVQVIAAGHVADASGPRYGYSDPSYIYDAEANKVFAFFVYSKDQGFGGSQFGNDDADRNVISSAVIESSDAGVTWSQPRLITSVTKPGTSKTNPAAGDVRSNFASSGEGIQLKYGPHKGRLIQQYAGDVRQADGSNKIQAYSVYSDDHGVTWHKGANVGDRMDENKTVELSDGRVLLNSRDNANRGYRKVAVSTDGGATYGPVSQDTELPDPANNGAIARMFPNAAQGSADAKKLIFTNANSKTGRENVSARVSCDDGETWPGVRTIRSGFSAYSTVTRLADGKFGVLYEGNYTDNMPFATFDDAWLNYVCAPLAVPAVNIAPSATQEVPVTVTNQEATTLSGATATVYTPSGWSATTVPVPDVAPGASVTVTVALTAPADASGPRSLNAAFTTADGRVSQFTFTATTPVAPQVGLTITGSAPARDVAANPYQAGDVLGYTLNVKSTANVAANSVPLTGTFDSGFLPPAAPNCRYNNLAAGASYNCTTAKHTITAADMERGYFVPEATFSITSTTTPSLTKTVQFTGAAVALRDGLISADISGARTDVGRDLATRPYAAGELVPYAFTVKNTSPFVEQVVPTAGNFSPFLPAGAGNCRYLSLPAGQSYECATPRHAVTAEEVEQGFFVPDTTWEVSAAGQSTRTYRINGGEVDLLVRDAALSATVVAEWKDADGDRFASAGDPVTFTYTVGNAGNVALTGLEAPDAGISLPFLAPGDTATATREHVLTAADVAGGSLAASAFEATARNGSKEVTATAEGQPLELKVQPAQPSKEPELTVQDLEDQTPPFDLGTAFKYRTGQKVSLAGLEYGQWYYVYLNKTGYRLGWMFPTTGDTVEFILPPEVRNGRDDVVVLDKDGRRVSFDRLQVTPKGEKI,glycan array binding signal (z-score),Gal3S(b1-4)Glc,-0.495
same,glycan array binding signal (z-score),Gal3S(b1-4)Glc6S,-0.587
same,glycan array binding signal (z-score),Gal3S(b1-4)GlcNAc,-0.788
same,glycan array binding signal (z-score),[1],-0.279
same,glycan array binding signal (z-score),[2],-0.071
same,glycan array binding signal (z-score),[3],-0.89
same,glycan array binding signal (z-score),Gal3S4S(b1-4)GlcNAc,-0.684
same,glycan array binding signal (z-score),Gal3S6S(b1-4)GlcNAc,-0.599
same,glycan array binding signal (z-score),Gal3S6S(b1-4)GlcNAc6S,-0.535
same,glycan array binding signal (z-score),Gal4S(b1-4)GlcNAc,-0.725
same,glycan array binding signal (z-score),Gal4S6S(b1-4)GlcNAc,-0.887
same,glycan array binding signal (z-score),Gal6P(b1-4)GlcNAc,-0.639
same,glycan array binding signal (z-score),Gal6S(b1-3)GlcNAc,-0.689
same,glycan array binding signal (z-score),Gal6S(b1-3)GlcNAc6S,-0.618
same,glycan array binding signal (z-score),Gal6S(b1-4)Glc,-0.719
same,glycan array binding signal (z-score),Gal6S(b1-4)Glc6S,-0.606
same,glycan array binding signal (z-score),Gal6S(b1-4)GlcNAc,-0.591
same,glycan array binding signal (z-score),Gal6S(b1-4)GlcNAc6S,-0.539
same,glycan array binding signal (z-score),GalNAc(a1-3)Gal,-0.631
same,glycan array binding signal (z-score),GalNAc(a1-3)GalNAc,-0.525
same,glycan array binding signal (z-score),[4],-0.494
same,glycan array binding signal (z-score),[5],-0.321
same,glycan array binding signal (z-score),GalNAc(b1-3)Gal,-0.699
same,glycan array binding signal (z-score),[6],0.031
same,glycan array binding signal (z-score),[7],-0.337
same,glycan array binding signal (z-score),[8],-0.916
same,glycan array binding signal (z-score),GalNAc(b1-3)GalNAc,-0.689
same,glycan array binding signal (z-score),GalNAc(b1-3)GlcNAc,-0.637
same,glycan array binding signal (z-score),GalNAc(b1-4)Gal(b1-4)Glc,-0.693
same,glycan array binding signal (z-score),GalNAc(b1-4)GlcNAc,-0.402
